Test results published in the supplement of paper PMC12217912.
The other results are listed elsewhere or left out. Sequences were assembled here from the parent chain. Values near 0.05 are background.

B1: TEV protease; numbered along this chain (parent)
chain: MGESLFKGPRDYNPISSSICHLTNESDGHTTSLYGIGFGPFIITNKHLFRRNNGTLVVQSLHGVFKVKDTTTLQQHLVDGRDMIIIRMPKDFPPFPQKLKFREPQREERICLVTTNFQTKSMSSMVSDTSCTFPSGDGIFWKHWIQTKDGQCGSPLVSTRDGFIVGIHSASNFTNTNNYFTSVPKNFMELLTNQEAQQWVSGWRLNADSVLWGGHKVFMVKPEEPFQPVKEATQL

Variants of: B1
Assay: raw area under fraction-flipped curve 0-4 h after induction (AUC4h, not background-subtracted), DNA-recorder readout of cleavage of the substrate (dimensionless); higher = more cleavage of the substrate by the protease variant
Conditions: temperature: 34 °C; time window: 0-4 h after rhamnose induction
Procedure: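 In vivo DNA recorder in E. coli TOP10(DE3) ΔrhaA at 34 °C. Each TEVp single-site mutant (parent TEVp 0) is paired with a single-site variant of the 7-mer TEVs (canonical ENLYFQ|S). The substrate sits between flexible linkers in a Bxb1-sfGFP-TEVs-SsrA fusion, so cleavage stabilises Bxb1 and speeds flipping of a recombination array, read by NGS. The value is the raw area under the fraction-flipped curve over 0-4 h after rhamnose induction (AUC4h), with ≥20 reads per time point. It is not background-subtracted; inactive controls average about 0.047.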
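Note: Bxb1 expression induced with 0.2% (w/v) L-rhamnose at OD600 near 0.5, cultures sampled hourly, flipped fraction per protease–substrate barcode pair counted by paired-end Illumina sequencing.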

Row | Variant | area with substrate ENLYFAS | area with substrate ENLYFCS | area with substrate ENLYFDS | area with substrate ENLYFFS | area with substrate ENLYFHS | area with substrate ENLYFIS | area with substrate ENLYFKS | area with substrate ENLYFMS | area with substrate ENLYFPS | area with substrate ENLYFRS | area with substrate ENLYFSS | area with substrate ENLYFTS | area with substrate ENLYFWS | area with substrate ENLYFYS | area with substrate ENLYFES | area with substrate ENLYFGS | area with substrate ENLYFLS | area with substrate ENLYFNS | area with substrate ENLYFVS
1 | Q151C | 0.0619 | 0.0511 | 0.0596 | 0.0663 | 0.0551 | 0.0636 | 0.0682 | 0.0577 | 0.0626 | 0.0589 | 0.0594 | 0.0539 | 0.0694 | 0.0568 |  |  |  |  | 
2 | Q151I | 0.0633 |  | 0.0589 | 0.0691 | 0.0588 | 0.0602 | 0.0775 | 0.06 | 0.0546 | 0.0662 | 0.0502 | 0.062 | 0.0524 | 0.0582 | 0.0753 | 0.0536 | 0.0292 | 0.0657 | 0.058
3 | Q151L | 0.058 | 0.0588 | 0.0723 |  | 0.0621 | 0.0395 | 0.0591 | 0.0725 | 0.0418 |  |  | 0.0592 | 0.056 | 0.0571 |  |  | 0.0401 | 0.0447 | 
4 | Q151W | 0.0502 | 0.0454 | 0.0528 | 0.0641 | 0.0618 | 0.0474 | 0.0514 | 0.0549 |  | 0.0625 | 0.0609 | 0.0563 | 0.0613 |  | 0.0517 |  | 0.0594 | 0.0677 | 0.0689
5 | S154G | 0.0614 | 0.0586 | 0.063 |  |  | 0.047 |  | 0.0481 | 0.0684 | 0.0669 | 0.0646 | 0.0572 |  | 0.0281 |  |  | 0.0686 | 0.0577 | 0.069
6 | P155Y | 0.0388 | 0.0389 |  | 0.0678 | 0.0444 | 0.0583 |  | 0.0472 | 0.0338 | 0.0506 |  | 0.0561 |  | 0.0454 | 0.0511 | 0.0434 | 0.0569 |  | 
